# In all, about 110,000 compounds went through this assay and about 230 (0.21%) showed an effect of 50% or more. This is one part of the list.
# Target: DPAP1 (Plasmodium falciparum, UniProt Q8IIJ9)
# Assay: primary screen, percent inhibition; read by cleavage of a fluorogenic dipeptide substrate; higher = more effect of the substance
# Parameters: species or system P. falciparum D10 trophozoite lysates; single well
# 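Also: 30 min substrate incubation versus DMSO and 10 µM JCP410 controls.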
# Sequence of DPAP1 (Q8IIJ9 whole entry, looked up): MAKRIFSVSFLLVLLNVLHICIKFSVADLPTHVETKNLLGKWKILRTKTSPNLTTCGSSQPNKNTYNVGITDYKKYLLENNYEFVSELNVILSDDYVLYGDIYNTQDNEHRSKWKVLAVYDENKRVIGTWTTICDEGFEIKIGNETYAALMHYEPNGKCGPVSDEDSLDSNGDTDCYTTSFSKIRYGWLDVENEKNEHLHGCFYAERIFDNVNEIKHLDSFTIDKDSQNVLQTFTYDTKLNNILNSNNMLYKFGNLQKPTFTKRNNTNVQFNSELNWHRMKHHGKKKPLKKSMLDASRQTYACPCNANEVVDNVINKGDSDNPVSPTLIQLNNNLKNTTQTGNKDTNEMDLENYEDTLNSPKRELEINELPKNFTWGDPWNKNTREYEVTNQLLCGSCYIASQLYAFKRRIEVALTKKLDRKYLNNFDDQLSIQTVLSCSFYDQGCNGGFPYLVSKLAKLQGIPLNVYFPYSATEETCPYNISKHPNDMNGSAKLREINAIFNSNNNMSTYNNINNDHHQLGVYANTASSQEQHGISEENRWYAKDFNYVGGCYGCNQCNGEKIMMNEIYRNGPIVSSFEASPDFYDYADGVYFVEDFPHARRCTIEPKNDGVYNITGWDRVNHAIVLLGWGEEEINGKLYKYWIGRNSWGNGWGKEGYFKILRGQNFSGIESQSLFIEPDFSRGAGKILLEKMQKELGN
row,SMILES,% Inhibition @ 10 uM [%]
1,CC(C)Nc1nc(Cl)nc(NC2CCCCC2)n1,-2.6
2,CC(C)CNC1CCS(=O)(=O)C1 (stereo not drawn),2.66
3,Cc1ccc(/C=C/C(=O)NCCCC(=O)N2CCC(N(C)C(C)C)CC2)cc1,4.83
4,O=[N+]([O-])c1ccc(Nc2ccc(Br)cc2)nc1,-4.15
5,COc1ccccc1S(=O)Cc1ccc(C(=O)NCCc2ccc(Cl)cc2)o1 (stereo not drawn),-4.96
6,COc1ccc(-c2cc(C)no2)cc1S(=O)(=O)N1CCOCC1,1.5
7,CC(C)n1cc(/C=C2/NC(=O)N(c3ccccc3)C2=O)c2ccccc21,0.316
8,CC(=O)N[C@H]1[C@H](Oc2cc(C)ccc2C)O[C@H](CO)[C@@H](O)[C@@H]1O,-2.45
9,Cc1ccc(CC2(O)CC(C)N(C)CC2C)cc1 (stereo not drawn),5.66
10,Cc1onc(-c2ccccc2Cl)c1C(=O)Nc1ccc(CC#N)cc1,-1.28
11,CC1(C)Cc2c(C#N)c(SCc3ccccc3)nc(N3CCCC3)c2CO1,-7.19
12,C=CCN1C(=O)N/C(=C/c2ccc(OC)c(Cl)c2)C1=O,-10.8
13,Cc1ccc(NC(=O)CSc2ncnc3sc(C)c(C)c23)cc1,1.65
14,Fc1ccc(OCCOCCN2CCCC2)cc1,-7.61
15,COc1cccc(C2C3=C(O)CC(C)(C)CC3=Nc3nn(-c4ccccc4)c(O)c32)c1 (stereo not drawn),-7.38
16,FC(F)(F)c1ccccc1C1CC(c2cccs2)=NN1c1cccc(Cl)c1 (stereo not drawn),-7.02
17,CCN1CCN(Cc2nc3c(c(=O)n(C)c(=O)n3C)n2CC(=O)c2ccccc2)CC1,2
18,O=C(c1cccc(Br)c1)N1CCCC1,-3.13
19,CCc1ccc(OCC(=O)N2CCN(c3ccccn3)CC2)c(Br)c1,1.39
20,CCOC(=O)c1cc2c(=O)n3ccccc3nc2n(C)/c1=N/C(=O)C(C)(C)Oc1ccc(Cl)cc1,-2.04
21,CCOC(=O)C(C(=O)N1CCOCC1)C1CCCCC1 (stereo not drawn),-2.42
22,CCCCNC(=S)N1CCn2cccc2C1c1ccccc1F (stereo not drawn),4.79
23,O=C1CC(c2ccccc2Cl)Cc2c1cnn2-c1nc2ccccc2[nH]1 (stereo not drawn),-5.38
24,CCOC(=O)c1sc(NC(=O)CSc2nnc(-c3sc(N)nc3C)n2C)nc1C,-4.94
25,CS(=O)(=O)NC(c1ccccc1)c1ccccc1,-4.95

row,SMILES,% Inhibition @ 10 uM [%]
1,CC(C(=O)NCc1ccco1)N1C(=O)c2ccccc2C1=O (stereo not drawn),-9.24
2,O=C(CN1C(=O)S/C(=C/c2cccc(F)c2)C1=O)N1CCOCC1,0.206
3,CN(C)CCN(C)Cc1ccc(C(F)(F)F)cc1,-1.22
4,CCOC(=O)C1CCN(c2cnccn2)CC1,2.65
5,COc1ccc(NC(=O)NCCN2Cc3ccccc3C2=O)cc1,-1.24
6,COc1ccc(C(=O)Nc2sc3c(c2C(N)=O)CCCCC3)cc1OC,3.65
7,COc1cc(/C=C/C(=O)c2c(O)cc(C)oc2=O)ccc1O,-2.18
8,CC(C)(C)C1CCc2c(sc(NC(=O)c3cccc(Cl)c3)c2C(=O)NCCO)C1 (stereo not drawn),-2.24
9,CCOc1cc(C=C(C#N)C#N)ccc1OCc1cc(=O)n2nc(CC)sc2n1,-2.19
10,CN1CCCN(Cc2cccc(Br)c2)CC1,-0.127
11,COC(=O)c1cc(S(=O)(=O)NCCc2ccc(OC)c(OC)c2)cn1C,3.92
12,O=C(Cn1cnc2c(nnn2Cc2ccccc2F)c1=O)N1CCCCCC1,-3.94
13,CCOC(=O)C1=CN(C(C)C)C=C(C(=O)OCC)C1c1ccc(O)c(OCC)c1,-6.93
14,O=C(NCc1noc2ccccc12)Nc1nc2ccccc2s1,-5.57
15,Cc1nc(Cl)c(C(=O)N2CCC(C)CC2)c(C)c1Cl,3.21
16,CCSc1ncc(Cl)c(C(=O)Nc2nc(C)c(C(=O)OCC(C)C)s2)n1,-4.64
17,O=C(NC(=O)c1ccc(Cl)cc1)OC1CCCCC1,1.86
18,O=C1c2ccccc2-c2ncnc3c(Br)cc(Br)c1c23,-2.03
19,Clc1cccc(-c2nc(N3CCCC3)nc3c2COc2ccccc2-3)c1,3.92
20,CCCNC1=N/C(=C\c2ccccc2)C(=O)N1c1ccccc1,-3.39
21,CCCCN(CCCC)CC(=O)Nc1c2c(nc3ccccc13)CCC2,-1.42
22,COc1ccc2[nH]c(C)c(CCNC(=O)c3cc(S(=O)(=O)N(C)C)c(Cl)cc3Cl)c2c1,-4.35
23,Cn1c2ccccc2c2cnn(CC(=O)N3CCN(Cc4ccccc4)CC3)c(=O)c21,-1.92
24,CN1CCN(C(=S)NC(=O)c2ccc(Br)cc2)CC1,-8.99
25,COC(=O)[C@@H]1CO[C@@H](C(=O)O[C@@H]2C[C@H](C)CC[C@H]2C(C)C)S1,2.65

row,SMILES,% Inhibition @ 10 uM [%]
1,O=C(Cc1ccccc1)NC1CCN(Cc2ccccc2)CC1,0.343
2,CCc1ccc(-c2cc3c(=O)n(CC(=O)NCCC4=CCCCC4)nc(C)n3n2)cc1,-2.85
3,CCc1ccc2ncc(C(=O)c3cccc(OC)c3)c(O)c2c1,-4.23
4,O=C(C1CCCN(c2ncnc3c2nc2n3CCCCC2)C1)N1CC=C(c2ccccc2)CC1 (stereo not drawn),10.1
5,CN1C2CCC1CC(N(CCc1ccccc1)C(=O)c1ccc(F)cc1)C2 (stereo not drawn),-4.3
6,Cc1cc(C)cc(Oc2nc3ccccn3c(=O)c2/C=C(\C#N)C(=O)N2CCOCC2)c1,0.315
7,CCOC(=O)c1c(C)nc(S)c(C#N)c1-c1ccccc1,57.1
8,CSc1ccccc1NC(=O)c1cc2n(n1)C(C(F)(F)F)CC(c1ccc3c(c1)OCO3)N2 (stereo not drawn),-2.64
9,CC(=O)Nc1ccc(S(=O)(=O)Nc2ccc(Br)c(Cl)c2)cc1,-4.7
10,O=C(NCc1ccccc1)c1coc(-c2ccccc2)n1,-2.65
11,Cc1ccc(Cn2nnc3c(=O)n(Cc4c(F)cccc4Cl)cnc32)cc1,-3.94
12,CCN(CC)CCCNC(=O)c1cnn2c(C(F)(F)F)cc(-c3ccc(C)cc3)nc12,35.5
13,N#Cc1nc(/C=C/c2ccc(F)cc2)oc1NC1CC1,-2.57
14,COc1ccc(-c2c(C)nn3c(N4CCc5ccccc5C4)cc(C)nc23)cc1OC,-0.138
15,CCC1CCCCN1Cc1nc2c(c(=O)n(C)c(=O)n2C)n1CCCO (stereo not drawn),-1.43
16,NC(=O)C1CCN(Cc2cccc(Oc3ccccc3)c2)CC1,1.88
17,Cc1ccc(/C=C(/C#N)C(=O)Nc2ccc(Cl)cc2)o1,-1.32
18,CCCC1=Nc2ncnn2C(c2ccc(F)cc2)/C1=C(/O)OCC (stereo not drawn),1.76
19,CCOc1ccc(CCNC(=O)c2oc3ccc4c(c3c2C)C(=O)CC(C)(C)O4)cc1OCC,1.52
20,CCC(C)NC(=O)c1ccc2c(c1)sc1nc(-c3ccc(C)cc3)cn12 (stereo not drawn),-2.37
21,CCn1cc(C2=NOC(C(=O)N3CCC(C)CC3)C2)c(C)n1 (stereo not drawn),-4.85
22,CN(C1CCCCC1)S(=O)(=O)N1CCCC(C(=O)N2CCN(c3ccccn3)CC2)C1 (stereo not drawn),3.61
23,Cc1cc(C)cc(NC=C2C(=O)CC(c3ccccc3)CC2=O)c1 (stereo not drawn),-0.105
24,Nc1c(Cl)cc2c(c1Cl)C(=O)c1ccccc1C2=O,25.7
25,O=C(O)c1ccc(N2C(=O)c3ccccc3C2=O)cc1Cl,-1.32

row,SMILES,% Inhibition @ 10 uM [%]
1,CC12CN3CC(C)(CN(C1)C31C(=O)Nc3ccccc31)C2O (stereo not drawn),-1.99
2,COCC(=O)n1nc(-c2ccc(Cl)cc2)nc1NCc1ccc(OC)cc1,3.93
3,Cc1ccc(C2c3c(-c4c(C)cc(C)cc4O)n[nH]c3C(=O)N2CCCO)cc1 (stereo not drawn),-1.71
4,Cc1nn(C)c(C)c1S(=O)(=O)N1CCC(C(=O)NC(c2ccccc2)c2ccccc2)CC1,2.39
5,COc1ccccc1C1=NOC(C(=O)N(C)C2CCCCC2)C1 (stereo not drawn),9.05
6,Fc1ccccc1N1CCN(C2CN3CCC2CC3)CC1 (stereo not drawn),-0.0908
7,COc1ccc(S(=O)(=O)Nc2c(C)nc3ncnn3c2O)cc1OC,1.3
8,Cc1ccc(Sc2cc(C(=O)N3CCC4(CC3)OCCO4)c3ccccc3n2)cc1,-6.49
9,CCS(=O)(=O)c1nc(S(=O)(=O)c2ccc(C)cc2)c(NCCCN2CCOCC2)s1,-4.04
10,Fc1ccc(COc2ccc(Cl)cc2CNCC2CCCO2)cc1 (stereo not drawn),2.01
11,CCOc1ccc(NC=C2C(=O)CC(c3ccco3)CC2=O)cc1 (stereo not drawn),0.673
12,Cc1cccc(C(=O)Nc2nc(C)cc(C)n2)c1,-7.11
13,CCOC(=O)c1sc2nc(SCC(=O)N3CCCC3)n(Cc3ccc(C)cc3)c(=O)c2c1C,-4.38
14,COc1ccc(OCCCN2CCCCC2)cc1,0.634
15,O=C(Nc1ccccc1[N+](=O)[O-])c1cc(S(=O)(=O)N2CCCCC2)ccc1Cl,3.25
16,CNC(=O)C1=NCC2(CCCC2)c2cc(OC)c(OC)cc21,2.65
17,O=S(=O)(c1ccc(Cl)cc1)c1ccc(-c2ccccc2)cc1,-0.712
18,CN1C2CCC1CC(OC(=O)CCN1CCOCC1)C2 (stereo not drawn),5.61
19,CCn1c(C(=O)N2CCC(C(=O)N3CC(C)CC(C)C3)CC2)cc2sccc21 (stereo not drawn),-3.58
20,O=C(NC(Cc1ccc([N+](=O)[O-])cc1)C(=O)NC(CCc1ccccc1)C(=O)CO)OCc1ccccc1 (stereo not drawn),-3.14
21,CC1(C)Cc2c(C#N)c(N)n(-c3ccccc3)c(=O)c2CO1,-8.6
22,COc1cccc(OC)c1C(=O)Nc1sc2c(c1C(N)=O)CCCC2,-0.725
23,CCOc1ccc(/C=C2N=C(/C=C/c3ccc(C)cc3)OC\2=O)cc1,3.42
24,O=C(Nc1cccc([N+](=O)[O-])c1)c1c(O)c2ccccc2oc1=O,-2.51

# — article PMC6919601, “Identification of Plasmodium dipeptidyl aminopeptidase allosteric inhibitors by high throughput screening” (PLoS ONE, 2019)
